Experimental data as given in patent publication EP4636087A1 (Kagoshima University, dated 2024).

Assays:
[1] = target: T1, human GPA33 expressed on HEK293STF cells (EGFP-human GPA33 expression vector, ORIGENE RG210225) (human, UniProt Q99795 22-319); experiment: cell-based or functional assay
T1 sequence (looked up): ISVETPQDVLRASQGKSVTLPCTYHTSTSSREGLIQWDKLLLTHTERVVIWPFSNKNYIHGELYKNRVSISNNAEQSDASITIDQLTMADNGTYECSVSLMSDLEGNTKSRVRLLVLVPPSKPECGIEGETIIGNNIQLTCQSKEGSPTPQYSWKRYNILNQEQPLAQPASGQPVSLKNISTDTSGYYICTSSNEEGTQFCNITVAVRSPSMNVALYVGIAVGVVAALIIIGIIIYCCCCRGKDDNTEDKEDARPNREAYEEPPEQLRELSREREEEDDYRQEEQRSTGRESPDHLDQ

[2] = target: T1, human GPA33 expressed on HEK293STF …; experiment: cell-based or functional assay; remark: listed apart in the source
[3] = target: T2, human GPA33 expressed on CHO-K1 cells (hGPA33-expressing cells co-expressing GFP) (human, UniProt Q99795 22-319); experiment: FACS, cloned phage on GPA33-expressing CHO-K1 cells
T2 construct: whole, on cells; CHO-K1 transfected with an hGPA33 expression vector (ORIGENE) co-expressing GFP
T2 sequence (looked up): T1 sequence (looked up)

[4] = target: T3, mouse GPA33 expressed on CHO-K1 cells (mGPA33-expressing cells) (mouse, UniProt Q9JKA5 22-319); experiment: as above
T3 construct: whole, on cells
T3 sequence (looked up): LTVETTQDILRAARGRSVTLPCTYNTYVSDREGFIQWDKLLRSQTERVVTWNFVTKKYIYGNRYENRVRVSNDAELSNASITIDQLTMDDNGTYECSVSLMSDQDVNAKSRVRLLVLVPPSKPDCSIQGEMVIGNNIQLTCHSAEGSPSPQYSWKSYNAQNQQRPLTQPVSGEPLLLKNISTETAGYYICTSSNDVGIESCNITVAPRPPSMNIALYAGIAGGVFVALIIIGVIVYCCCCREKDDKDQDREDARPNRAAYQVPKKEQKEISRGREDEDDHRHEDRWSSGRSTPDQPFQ

[5] = target: T4, human GPA33 recombinant protein (C-terminal His tag fusion protein, abcam) (human, UniProt Q99795 22-235, limits assumed); experiment: SPR, Biacore T200, 25°C, GPA33-His amine-coupled on CM5, scFv-Fc as analyte, 1:1 binding model
T4 construct: Bought recombinant protein (abcam); also called hGPA33
T4 sequence (looked up): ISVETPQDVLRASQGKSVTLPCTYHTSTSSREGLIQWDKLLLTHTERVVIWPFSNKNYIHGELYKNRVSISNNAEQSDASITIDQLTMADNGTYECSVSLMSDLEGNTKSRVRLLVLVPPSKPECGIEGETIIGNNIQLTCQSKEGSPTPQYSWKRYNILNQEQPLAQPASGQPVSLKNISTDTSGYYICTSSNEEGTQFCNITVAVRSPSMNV

[6] = target: T5, mouse GPA33 recombinant protein (C-terminal His tag fusion protein, abcam) (mouse, UniProt Q9JKA5 22-235, limits assumed); experiment: as above
T5 construct: Bought recombinant protein (abcam); also called mGPA33
T5 sequence (looked up): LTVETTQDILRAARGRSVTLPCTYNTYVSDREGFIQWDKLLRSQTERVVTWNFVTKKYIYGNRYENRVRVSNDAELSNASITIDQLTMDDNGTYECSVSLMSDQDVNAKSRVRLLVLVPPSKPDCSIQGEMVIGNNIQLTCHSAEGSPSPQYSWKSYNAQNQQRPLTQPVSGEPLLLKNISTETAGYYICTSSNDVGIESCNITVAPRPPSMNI

B1: G9-R1CRD-His (other)
chain: QVQLVQSGGGLVKPGGSLRLSCAASGFTFSNYNMNWVRQAPGKGLEWVSSISSSGDFMYYADSVKGRFTISRDDAKNSLYLQMNSLRAEDTAVYYCAREGPGTPFDYWGQGTLVTVSSGGGGSGGGGSGSTGS[about 100 residues not written out]GGSGGSISAEGSQACAKGCELCSEVNGCLKCSPKLFILLERNDIRQVGVCLPSCPPGYFDARNPDMNKCIKCKIEHCEACFSHNFCTKCKEGLYLHKGRCYPACPEGSSAANGTMECSSPAHHHHHHGA
[1]
  fold higher Wnt/β-catenin signaling promotion activity than Rspo1FL-Fc, by EC50(GPA33): 119 times
[2]
  EC50(GPA33) (nM), Wnt/β-catenin reporter in 293STF cells expressing GPA33: 0.008 nM
  EC50(MOG)/ EC50(GPA33): 3240

B2: G9-R4CRD-His (other)
chain: QVQLVQSGGGLVKPGGSLRLSCAASGFTFSNYNMNWVRQAPGKGLEWVSSISSSGDFMYYADSVKGRFTISRDDAKNSLYLQMNSLRAEDTAVYYCAREGPGTPFDYWGQGTLVTVSSGGGGSGGGGSGSTGS[about 100 residues not written out]GGSGGSGGNCTGCIICSEENGCSTCQQRLFLFIRREGIRQYGKCLHDCPPGYFGIRGQEVNRCKKCGATCESCFSQDFCIRCKRQFYLYKGKCLPTCPPGTLAHQNTRECQGHHHHHHGA
[2]
  EC50(GPA33) (nM), Wnt/β-catenin reporter in 293STF cells expressing GPA33: 0.011 nM
  EC50(MOG)/ EC50(GPA33): 152

B3: R1CRD-G9-His (other)
chain: ISAEGSQACAKGCELCSEVNGCLKCSPKLFILLERNDIRQVGVCLPSCPPGYFDARNPDMNKCIKCKIEHCEACFSHNFCTKCKEGLYLHKGRCYPACPEGSSAANGTMECSSGGGGSGGGGSGGGGSQVQLVQSGGGLVKPGGSLRLSCAASGFTFSNYNMNWVRQAPGKGLEWVSSISSSGDFMYYADSVKGRFTISRDDAKNSLYLQMNSLRAEDTAVYYCAREGPGTPFDYWGQGTLVTVSSGGGGSGGGGSGSTGS[about 100 residues not written out]HHHHHHGA
[2]
  EC50(GPA33) (nM), Wnt/β-catenin reporter in 293STF cells expressing GPA33: 0.028 nM
  EC50(MOG)/ EC50(GPA33): 414

B4: G9-R1CRD-GS3-Fcm (Fc fusion)
chain: QVQLVQSGGGLVKPGGSLRLSCAASGFTFSNYNMNWVRQAPGKGLEWVSSISSSGDFMYYADSVKGRFTISRDDAKNSLYLQMNSLRAEDTAVYYCAREGPGTPFDYWGQGTLVTVSSGGGGSGGGGSGSTGS[about 100 residues not written out]GGSGGSISAEGSQACAKGCELCSEVNGCLKCSPKLFILLERNDIRQVGVCLPSCPPGYFDARNPDMNKCIKCKIEHCEACFSHNFCTKCKEGLYLHKGRCYPACPEGSSAANGTMECSSGGGGSGGGGSGGGGSEPKSADKTHTCPPCPAPEAEGAPSVFLFPPKPKDTLMISRTPEVTCVVVDVSHEDPEVKFNWYVDGVEVHNAKTKPREEQYNSTYRVVSVLTVLHQDWLNGKEYKCAVSNKALPASIEKTISKAKGQPREPQVYTLPPSREEMTKNQVSLTCLVKGFYPSDIAVEWESNGQPENNYKTTPPVLDSDGSFFLYSKLTVDKSRWQQGNVFSCSVMHEALHNHYTQKSLSLSPGK
[2]
  EC50(GPA33) (nM), Wnt/β-catenin reporter in 293STF cells expressing GPA33: 0.04 nM
  EC50(MOG)/ EC50(GPA33): > 750

B5: G9-R4CRD-GS3-Fcm (Fc fusion)
chain: QVQLVQSGGGLVKPGGSLRLSCAASGFTFSNYNMNWVRQAPGKGLEWVSSISSSGDFMYYADSVKGRFTISRDDAKNSLYLQMNSLRAEDTAVYYCAREGPGTPFDYWGQGTLVTVSSGGGGSGGGGSGSTGS[about 100 residues not written out]GGSGGSGGNCTGCIICSEENGCSTCQQRLFLFIRREGIRQYGKCLHDCPPGYFGIRGQEVNRCKKCGATCESCFSQDFCIRCKRQFYLYKGKCLPTCPPGTLAHQNTRECQGGGGGSGGGGSGGGGSEPKSADKTHTCPPCPAPEAEGAPSVFLFPPKPKDTLMISRTPEVTCVVVDVSHEDPEVKFNWYVDGVEVHNAKTKPREEQYNSTYRVVSVLTVLHQDWLNGKEYKCAVSNKALPASIEKTISKAKGQPREPQVYTLPPSREEMTKNQVSLTCLVKGFYPSDIAVEWESNGQPENNYKTTPPVLDSDGSFFLYSKLTVDKSRWQQGNVFSCSVMHEALHNHYTQKSLSLSPGK
[2]
  EC50(GPA33) (nM), Wnt/β-catenin reporter in 293STF cells expressing GPA33: 0.016 nM
  EC50(MOG)/ EC50(GPA33): 36.3

B6: GPA33-2RC9 cloned scFv phage (scFv)
scFv: QVQLVQSGGGLVKPGGSLRLSCAASGFTFSNYNMNWVRQAPGKGLEWVSSISSSGDFMYYADSVKGRFTISRDDAKNSLYLQMNSLRAEDTAVYYCAREGPGTPFDYWGQGTLVTVSSGGGGSGGGGSGSTGS[about 100 residues not written out]
notes: also called G9
[3]
  binding result: binds
[4]
  binding result: binds

B7: GPA2RC9-Fc (anti-GPA33 single-chain Fv-Fc, scFv linked to human IgG1-Fc) (Fc fusion)
chain: QVQLVQSGGGLVKPGGSLRLSCAASGFTFSNYNMNWVRQAPGKGLEWVSSISSSGDFMYYADSVKGRFTISRDDAKNSLYLQMNSLRAEDTAVYYCAREGPGTPFDYWGQGTLVTVSSGGGGSGGGGSGSTGS[about 100 residues not written out][about 250 residues not written out]
notes: also called 2RC9 scFv-Fc; 2RC9 single-chain Fv-Fc
[5]
  Kd: 3.6 nM
[6]
  Kd: 14.3 nM
